# According to PubChem BioAssay AID485344 (National Center for Advancing Translational Sciences (NCATS), 2010):
# About 6,900 (2%) of roughly 340,000 compounds were called active. No stated cut-off is given here; in the data, active means inhibition above about 30%; inactive means below that, where a call was filed. Only a part is listed here, and it is no random draw. Where no call is shown, the source filed none.
# Molecular target: D(2) dopamine receptor (Homo sapiens) (UniProt P14416)
# Assay: HTS Assay for Allosteric Antagonists of the Human D2 Dopamine Receptor: Primary Screen for Antagonists; further: 0% is about no effect
# Settings: HEK293 TREx D2 cells, calcium flux, dopamine EC80; at 10 µM; stronger effect = higher value
# Method in brief: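 Inhibition of EC80 dopamine-driven calcium flux, recorded kinetically, defines activity here; cells are a tetracycline-induced HEK293 T-REx line expressing force-coupled D2.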
# Sequence of UniProt P14416 (P14416 whole entry, looked up): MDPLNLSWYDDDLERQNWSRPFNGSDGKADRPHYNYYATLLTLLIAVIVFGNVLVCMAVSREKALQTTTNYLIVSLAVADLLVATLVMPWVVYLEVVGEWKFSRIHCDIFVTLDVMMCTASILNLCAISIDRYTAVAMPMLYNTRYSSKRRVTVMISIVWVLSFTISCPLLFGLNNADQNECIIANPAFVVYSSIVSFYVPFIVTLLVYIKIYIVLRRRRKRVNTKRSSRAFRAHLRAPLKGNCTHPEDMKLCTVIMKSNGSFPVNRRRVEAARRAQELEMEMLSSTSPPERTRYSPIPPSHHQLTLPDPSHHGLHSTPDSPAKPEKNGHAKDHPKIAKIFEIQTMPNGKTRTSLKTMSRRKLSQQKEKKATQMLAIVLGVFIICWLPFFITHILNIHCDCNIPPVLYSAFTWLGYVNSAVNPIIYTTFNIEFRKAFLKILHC
row,SMILES,inhibition
1,COc1ccc(C)cc1N(C)C(=O)c1c(C)oc2ncnc(N3CCOCC3)c12,2.39%
2,COc1ccc(OC)c(CN2CCCC(C(=O)c3ccccc3SC)C2)c1 (configuration not stated),active: 50.7%
3,CN(c1ccc(Cl)cc1)S(=O)(=O)c1nnc(NC(=O)C2CCCCC2)s1,20.2%
4,CCOc1ccc(OCC)c(NC(=O)Cn2ncc3c4ccccc4n(Cc4ccccc4)c3c2=O)c1,13.5%
5,CSc1nnc(CCNS(=O)(=O)c2ccccc2Br)n1C,active: 33.6%
6,CCc1ccc(CNC(=O)c2cccc(-n3cnc4cccnc43)c2C)cc1,3.55%
7,CCC1CN(C(=O)N2CCC(C(=O)NCCN(C)C)CC2)c2ccccc2O1 (configuration not stated),26.9%
8,Cn1ccc2cc(S(=O)(=O)N3CCCN(C(=O)Nc4ccccc4Br)CC3)ccc21,-15.3%
9,Cc1ccc(NC(=O)c2cnc(SCC(=O)N3CCOCC3)n(C)c2=O)cc1,18.2%
10,COc1cc(-c2noc(-c3ccc(NCc4cccnc4)c([N+](=O)[O-])c3)n2)cc(OC)c1OC,-12%
11,COc1ccc(OC)c(CNC(=O)CCCn2ccc3cc(S(=O)(=O)N4CCCC4)ccc32)c1,6.92%
12,CCOc1ccc(CNC(=O)CCC(=O)N2CC(C)Sc3ccccc32)cc1 (configuration not stated),9.36%
13,CCOc1ccc(CCNC(=O)CCCn2nc(C)c3sc4ccccc4c3c2=O)cc1OCC,-27.6%
14,O=C(CSc1nccn1-c1ccccc1)Nc1nc2ccccc2s1,26.3%
15,CCCc1cc(=O)[nH]c(Nc2ccc(C(=O)O)cc2)n1,12.7%
16,N#C/C(=C/c1cn(Cc2ccc(F)cc2)c2ccccc12)C(=O)Nc1cccc(Cl)c1,-15.2%
17,CCn1c2ccccc2c2nnc(SCCN3CCCCC3)nc21,6.54%
18,COc1ccccc1Nc1nn2c(=O)c3ccc(C(=O)NCCCOC(C)C)cc3nc2s1,-1%
19,COC(=O)CC1c2cc(OC)c(OC)cc2CCN1C(=O)Nc1ccc(C)cc1Cl (configuration not stated),-5.9%
20,CCOC(=O)c1cccc(NC(=O)C(CC(C)C)N2Cc3ccccc3C2=O)c1 (configuration not stated),1.35%
21,Cc1ccc(CN(C(=O)COc2cccc([N+](=O)[O-])c2)c2ccccn2)o1,-5.98%
22,O=S(=O)(Nc1ccc(Cl)cc1)c1ccc(NS(=O)(=O)c2ccc3c(c2)OCCO3)cc1,-27.6%
23,CCC(=O)N1CCc2cc(Br)cc(S(=O)(=O)N3CCCC(C(=O)Nc4ccc(OC)c(Cl)c4)C3)c21 (configuration not stated),21.7%
24,Cn1nnnc1SCCNCc1ccc(F)cc1,8.15%
25,Cc1cccc(-c2nc(CS(=O)CC(=O)NCc3cccs3)c(C)o2)c1 (configuration not stated),active: 39.1%

row,SMILES,inhibition
1,COc1ccc2oc(=O)c(C(=O)NCCc3c(C)[nH]c4c(Cl)cccc34)cc2c1,17.4%
2,COc1cc2ccccc2cc1C(=O)Nc1cccc(-c2nc3cc(C)c(C)cc3o2)c1C,-8.94%
3,Cc1nc2nc(NCc3cccc(Br)c3)[nH]n2c(=O)c1Cc1ccccc1,10.3%
4,O=C(Nc1cccc(Cl)c1Cl)c1ccc2c(c1)N(Cc1cccc(Cl)c1)C(=O)c1ccccc1S2(=O)=O,15.7%
5,CCc1ccccc1NC(=O)N1CCN(c2cc(-c3noc(C)n3)ccc2C)CC1,10.7%
6,Cc1ccc(C(=S)N2CCN(Cc3ccccc3)CC2)s1,active: 50%
7,Cc1ccc(C)c(NC(=O)c2ccc(CN3CC(=O)N4CCCCC4C3=O)cc2)c1 (configuration not stated),-8.92%
8,CC(=O)Nc1ccc(NC(=O)c2ccc3c(c2)N(Cc2cccc(Cl)c2)C(=O)c2ccccc2S3(=O)=O)cc1,-4.5%
9,CCn1c(CN2CCCCC2)nc2cc(NC(=O)c3cc(OC)c(OC)c(OC)c3)ccc21,4.63%
10,CN(Cc1ccccc1)C(=O)c1nc(-c2ccc(Cl)cc2)n2c1CCCCC2,8.21%
11,CC1N=C2c3ccccc3N=C(SCC(=O)NCCc3ccccc3)N2C1=O (configuration not stated),-4.1%
12,COc1ccc(Nc2c3c(nc4ccc(NC(=O)c5ccc(F)cc5)cc24)CCCC3)cc1OC,-3.68%
13,CCCCOc1cccc(C(=O)N(Cc2ccc(C)o2)c2ccccn2)c1,-18.9%
14,CCOc1ccc(CCNC(=O)c2cnc3sc(N4CCCC4)nn3c2=O)cc1,1.75%
15,Oc1ccc(CNCC2COc3ccccc3O2)cc1 (configuration not stated),active: 185%
16,COc1ccc(NS(=O)(=O)c2ccc3[nH]c4c(c3c2)CCCC4)cc1OC,5.83%
17,O=C(NC1(C(F)(F)F)NC(=O)N(CCc2ccccc2)C1=O)c1ccc(Cl)cc1 (configuration not stated),-3.38%
18,CCn1ccc2c(OCC(=O)Nc3ccccc3C(F)(F)F)cccc2c1=O,-19%
19,COC(=O)CC1Oc2ccc(Cl)cc2-n2cc(-c3ccccc3)nc21 (configuration not stated),-5.57%
20,Oc1c(C(c2ccccc2)N2CCC(O)CC2)sc2nc(-c3ccco3)nn12 (configuration not stated),-15%
21,COc1ccc(NC(=O)CN(C)C(=O)c2cc(S(=O)(=O)N(C)C)ccc2N2CCCC2)cc1,active: 38.2%
22,Cc1ccc(-n2nc3c(=O)n(C(C)C(=O)NCc4ccco4)nc(C)c3c2C)cc1 (configuration not stated),4.11%
23,COc1cc(OC)cc(C(=O)Nc2ccc(-n3cnnn3)c(C)c2)c1,active: 38%
24,Cc1ccc(Cl)cc1N1CCN(CCCNC(=O)c2ccc3nc(N4CCCCC4)sc3c2)CC1,22%
25,O=C(NCC(c1ccco1)S(=O)(=O)c1cccs1)c1ccccc1F (configuration not stated),-0.415%

row,SMILES,inhibition
1,COc1cccc(CNc2cc(C)nc3nc(-c4ccc(C)cc4)nn23)c1,21.9%
2,COc1ccc(C2c3c(n(C)c4ccccc34)C(=O)N2CC(=O)Nc2cccc(F)c2)cc1 (configuration not stated),10.5%
3,COc1ccc(NC(=O)c2oc3ccc(S(=O)(=O)N4CCOCC4)cc3c2C)cc1,-26.5%
4,Cc1ccc(N2CC(C)Cn3c2nc2c3c(=O)n(Cc3cccc(Cl)c3)c(=O)n2C)cc1 (configuration not stated),10.5%
5,O=c1oc2ccc3ccccc3c2cc1-c1nnc(Nc2ccc(F)cc2)s1,-6.27%
6,CCCc1cc(=O)[nH]c2nnc(SCC)n12,-2.72%
7,Cc1ccc(C)c(-n2c(N)c(C#N)c3nc4ccccc4nc32)c1,-1.89%
8,COc1cc(C2C(=O)N(C3CCCCCC3)CC(=O)N2CCc2ccccc2)ccc1OC(C)C (configuration not stated),15.6%
9,Cc1nc2ccn(Cc3ccco3)c(=O)c2cc1C(=O)NCc1ccccc1,2.83%
10,Cc1cc2cc(CNC(=S)NCc3ccccc3)ccc2n1C,active: 44.9%
11,COc1ccc(-c2nnc(NC(=O)c3ccccc3C)o2)cc1,active: 51.4%
12,COc1ccccc1CNS(=O)(=O)c1cnc(N)nc1,14.1%
13,COc1ccc(C2=NC(C)(C)N(CC(=O)Nc3cccc(C)c3)C2=O)cc1,16.6%
14,COc1ccc(Cn2c(C(=O)O)c(CNCCc3cc(OC)ccc3OC)c3ccc(C)cc32)cc1,1.64%
15,CC(=O)Nc1ccc(S(=O)(=O)NCC2CCC(C(=O)NCCN(CC(C)C)CC(C)C)CC2)cc1 (configuration not stated),-23.4%
16,CN(C)C(=O)c1c(NC(=O)c2ccccc2F)sc2c1CCCC2,26.6%
17,Cc1ccc(S(=O)(=O)Nc2nc3n(n2)C(c2ccc(F)cc2)C=C(c2ccccc2)N3)cc1 (configuration not stated),10.6%
18,CC1=C(C(=O)Nc2ccc(Cl)cc2)C(CC(C)C)n2nc(SCc3ccccc3C)nc2N1 (configuration not stated),14.6%
19,O=C(c1cccn1-c1nnc(N2CCCC2)s1)N1CCN(c2ccc(Cl)cc2)CC1,1.66%
20,COc1cc(C2Nc3c(C)cc(C)cc3-c3cc(C)nn32)cc(OC)c1O (configuration not stated),4.06%
21,O=C(c1cccc(F)c1)N1CCN(C(=O)C(c2ccccc2)c2ccccc2)CC1,active: 31.1%
22,Cc1ccc2c(c1)C(c1ccccc1)N(C(=O)Cc1ccc(F)cc1)CC(=O)N2 (configuration not stated),8.05%
23,C/C(=N\OC(=O)Nc1ccc(Cl)cc1)c1ccc(F)c(F)c1,active: 41.1%
24,CCCS(=O)(=O)NCCc1sc2nc(-c3ccc(F)cc3)nn2c1C,-10.5%
25,Cn1c(=O)[nH]c2cc(-c3noc(-c4ccc(C#N)cc4)n3)ccc21,-0.186%

row,SMILES,inhibition
1,CCOC(=O)c1ccccc1NC(=O)CSc1nccn1Cc1ccco1,0.032%
2,CC(C)Oc1ccc(C(=O)N(Cc2ccco2)Cc2cccs2)cc1,12.8%
3,O=C(N/N=C/c1cccc2ccccc12)c1cccnc1,active: 37.3%
4,Cc1cccc(C)c1NC(=O)c1sc(-n2nc(C)c(Cc3ccccc3)c2C)nc1C,7.09%
5,Cc1cc(OCC(=O)N(Cc2ccc(N(C)C)cc2)CC2CCCO2)ccc1Cl (configuration not stated),-9.1%
6,COc1ccc(-c2cc3nc(C)c(CCC(=O)NC4CCCCC4)c(C)n3n2)c(OC)c1,0.248%
7,C#CCOCCOCCOCCNc1nc(N2CCN(C(=O)[C@H](C)n3cc(CCCN=C(N)N)nn3)CC2)nc(N2CCN(C(=O)[C@H](CCCCN)n3cc(CCCC)nn3)CC2)n1,active: 31%
8,COc1cccc(-c2nc(S(=O)(=O)c3ccc(C)cc3)c(N3CCCCC3)o2)c1,-6.99%
9,COc1ccc(-c2nc(SCC(=O)Nc3c(C)cc(C)cc3C)n[nH]2)cc1,8.99%
10,O=C(Nc1nc2c(s1)CN(Cc1ccccc1)CC2)c1cccc(S(=O)(=O)N2CCc3ccccc32)c1,active: 40.8%
11,CCOC(=O)c1c(C)oc2ncnc(Nc3ccc(OC)c(OC)c3)c12,0.724%
12,COC(=O)c1ccc(C(=O)OC)c(NC(=O)c2ccc(-c3ccccc3)s2)c1,13.8%
13,COCCCNC(=O)CCC(=O)NNc1nc2ccccc2c2nc(C)nn12,-7.4%
14,CC(C)Oc1ccc(-c2nc3c(C#N)c[nH]n3c2NC2CCCCC2)cc1,16.3%
15,COc1ccc(N2CC(NC(=O)C(c3ccccc3)c3ccccc3)CC2=O)cc1OC (configuration not stated),14.7%
16,COC(=O)c1nnn(CC(=O)NC(=O)Nc2c(C)cccc2C)c1C(=O)OC,16.8%
17,CC1Cc2ccccc2N1S(=O)(=O)c1nnc(NC(=O)c2ccccc2)s1 (configuration not stated),14.9%
18,COc1ccc(C2CC(=O)c3cc(-c4nc(-c5ccc(Cl)cc5)cs4)c(=O)[nH]c3C2)cc1OC (configuration not stated),5.45%
19,CCn1cc(C(=O)N2CCN(c3cccc(C)c3C)CC2)c2cc(OC)c(OC)cc2c1=O,11.9%
20,NNc1ncnc2c1cnn2-c1ccccc1,active: 30.7%
21,NS(=O)(=O)c1ccc(NC(=O)C2Cc3ccccc3N2C(=O)c2ccccc2)cc1 (configuration not stated),17.4%
22,COc1ccc(OC)c(CCNC(=O)Cn2ncc3c([nH]c4ccccc43)c2=O)c1,4.9%
